# This is one part of the list. At the low end of the ranking the order means little.
# Target: T1, GST-Rok (full length) (UniProt O34857)
# T1 sequence: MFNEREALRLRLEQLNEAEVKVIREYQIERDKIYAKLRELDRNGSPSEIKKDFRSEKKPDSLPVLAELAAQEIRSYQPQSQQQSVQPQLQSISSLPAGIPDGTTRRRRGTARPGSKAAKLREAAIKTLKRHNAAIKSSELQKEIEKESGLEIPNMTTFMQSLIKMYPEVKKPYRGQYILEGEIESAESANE
# Experiment: protein binding microarray;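 further: rank score from −0.5 (least bound) to 0.5 (best bound)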
# Conditions: Rok is a gene silencer of Bacillus subtilis; high values mean tight binding; most listed sequences are background and not binding sites; double strand, one strand shown
row,Sequence,binding signal
1,CTATCTGA,0.068 E-score
2,CATCGGAA,-0.195 E-score
3,AGATGTCA,0.114 E-score
4,CAAGGATC,-0.0884 E-score
5,CGGTACCA,0.125 E-score
6,GCGGGATA,-0.0361 E-score
7,CGCGACGC,-0.125 E-score
8,AGTGCCCG,-0.139 E-score
9,CTGACGAC,-0.0515 E-score
10,AGCCTTAG,-0.181 E-score
11,ACGAAGAT,0.201 E-score
12,ATACAGGG,-0.142 E-score
13,AATAGAAG,0.152 E-score
14,CCCCCGGG,-0.411 E-score
15,CATGGCAC,0.000675 E-score
16,GCATTAAA,-0.0493 E-score
17,CTGGGTCA,-0.129 E-score
18,ACAGCGGA,0.135 E-score
19,CGAAAGCC,-0.225 E-score
20,CATTGCCA,-0.068 E-score
21,CGGGGTGC,-0.264 E-score
22,ACAGCCCG,-0.11 E-score
23,CTGACGGC,-0.319 E-score
24,AACCTGTC,-0.0942 E-score
25,ACCGGACG,-0.302 E-score

row,Sequence,binding signal
1,ACCGATAA,0.187 E-score
2,CACATTAA,0.187 E-score
3,TATACTAA,0.364 E-score
4,ATTCCCGG,-0.171 E-score
5,ATAAATGA,0.231 E-score
6,CACGTGGG,-0.127 E-score
7,GAAAATAC,0.351 E-score
8,GTAGTCCA,0.0665 E-score
9,TAACCAAA,0.0828 E-score
10,CCACAGTA,-0.103 E-score
11,CCACTCTA,0.0213 E-score
12,ATGCTCTG,-0.146 E-score
13,CTTTATAC,0.226 E-score
14,CTGTACGC,-0.225 E-score
15,ACGTTACC,0.0183 E-score
16,ACCAGACC,-0.00906 E-score
17,CCTTTTTA,0.17 E-score
18,CTGCCTAA,0.0586 E-score
19,CGCACAAA,-0.0539 E-score
20,CAAACGTG,-0.0474 E-score
21,CCTTCAAA,-0.204 E-score
22,ACCTCGAC,-0.158 E-score
23,ATACCTTG,-0.135 E-score
24,CAGCGATC,-0.177 E-score
25,AATTGGGG,-0.079 E-score

row,Sequence,binding signal
1,GCCACAGC,-0.334 E-score
2,CGATCGAG,-0.147 E-score
3,ATGTCGCA,-0.124 E-score
4,CAAGAGAA,-0.00719 E-score
5,AAGCCACT,-0.238 E-score
6,AAAATGGT,-0.0689 E-score
7,ACGTCAAT,0.212 E-score
8,ACTCCGAT,-0.0845 E-score
9,CTACGCAC,-0.0795 E-score
10,AGTCGGGC,-0.224 E-score
11,GTGTTCCA,-0.244 E-score
12,AGCCTGTG,-0.107 E-score
13,GTACTCGA,0.0628 E-score
14,GCAGCCGA,-0.35 E-score
15,ATTTCGGC,-0.0874 E-score
16,GGGAGCAC,-0.362 E-score
17,ACATAGGC,0.0845 E-score
18,CCATAGGA,-0.0149 E-score
19,CCCCCCTC,-0.446 E-score
20,AATTGTTG,0.139 E-score
21,GAGGCCGC,-0.383 E-score
22,AGCCATAG,-0.0591 E-score
23,CCCAGAAC,-0.13 E-score
24,TAGAATAA,0.272 E-score
25,TCGGGAGA,0.0889 E-score

row,Sequence,binding signal
1,ACATGGTC,-0.0838 E-score
2,CCTGGGGC,-0.409 E-score
3,CTGATAAG,0.0753 E-score
4,GCACGTGA,0.165 E-score
5,ATGAGCGC,-0.127 E-score
6,CAGAGCAA,0.00217 E-score
7,CCCCGTCA,-0.266 E-score
8,GTTGACAA,0.0497 E-score
9,CGATATTA,0.213 E-score
10,CTTGGGGA,-0.0863 E-score
11,CAGCCCGG,-0.158 E-score
12,CACAGACC,-0.211 E-score
13,CTTATTCA,-0.00685 E-score
14,CTCGTAAA,0.12 E-score
15,AACTGTGC,-0.00787 E-score
16,ACCATGAC,-0.00323 E-score
17,CGTTGTCA,0.09 E-score
18,AATACCCT,-0.0197 E-score
19,GGTCACAA,-0.0273 E-score
20,CCAAAGAG,-0.188 E-score
21,AGCCTCCA,-0.215 E-score
22,AATTGTCG,0.0786 E-score
23,ATCACCAT,0.0861 E-score
24,CTTGCTCC,-0.194 E-score
25,CATTCTGC,-0.127 E-score

row,Sequence,binding signal
1,ACTGCCCC,-0.271 E-score
2,TAGTTTAA,0.33 E-score
3,CTGTCTAC,0.15 E-score
4,CACGAGTC,-0.137 E-score
5,ATGTAGCG,0.307 E-score
6,AGAGCCCT,-0.253 E-score
7,CACGGTCG,-0.121 E-score
8,CTGGGGTA,-0.113 E-score
9,GATTACAA,0.124 E-score
10,GAAAGGGA,-0.216 E-score
11,CCTTTCTC,-0.158 E-score
12,CGTACGCA,0.0937 E-score
13,GGGACAGA,-0.0957 E-score
14,GCGTGCTA,0.173 E-score
15,CACGAAAG,-0.037 E-score
16,CCCTTTGA,-0.37 E-score
17,AACCTTCT,-0.181 E-score
18,CTAGTAAA,0.328 E-score
19,AGCGAGCA,-0.18 E-score
20,CCCACATC,-0.248 E-score
21,AAATATGA,0.199 E-score
22,AAGCACCT,-0.164 E-score
23,CAGGAGTC,-0.059 E-score
24,ACGGGCCA,-0.0602 E-score
25,ATTTATCG,0.281 E-score

row,Sequence,binding signal
1,AATCTCAA,0.0439 E-score
2,GACGCGTA,0.0146 E-score
3,CCAAAATC,-0.00798 E-score
4,ATATGCTA,0.31 E-score
5,ATCATCTG,0.0384 E-score
6,CGCTAGCG,0.0246 E-score
7,CACAATGG,-0.0776 E-score
8,CCGTCCGA,-0.32 E-score
9,GATGAATA,0.157 E-score
10,AATGGGCC,-0.254 E-score
11,ACTCGAAA,0.213 E-score
12,CTCGTCCA,-0.225 E-score
13,GACACAAA,0.0864 E-score
14,CGCTCGCA,-0.0784 E-score
15,ATACTGAA,0.103 E-score
16,GTGCAGAA,-0.091 E-score
17,GAATGCCA,-0.00946 E-score
18,GGTTACCA,-0.248 E-score
19,GGACGCTA,0.000145 E-score
20,CCTATAAG,0.142 E-score
21,GAACCAGA,-0.24 E-score
22,AAGTAAGG,-0.0987 E-score
23,ATATCTCA,0.224 E-score
24,GGTTACTA,0.163 E-score
25,CCCACGGA,-0.263 E-score

row,Sequence,binding signal
1,CAAACCTA,0.145 E-score
2,GTACGTAC,0.275 E-score
3,GGCCCGAA,0.0559 E-score
4,TGACTGAA,-0.0324 E-score
5,ACTTCATC,-0.0486 E-score
6,GACCTCCA,-0.306 E-score
7,AAGGCGTA,-0.0795 E-score
8,ATATGACA,0.154 E-score
9,CCTTGGGA,-0.194 E-score
10,AGGAGATG,-0.192 E-score
11,ATCGGGTC,-0.199 E-score
12,CAGTCGAA,-0.24 E-score
13,CCTTTTTC,-0.168 E-score
14,TCCACCCA,-0.192 E-score
15,AACCGCCT,-0.293 E-score
16,GTTTGTAA,0.172 E-score
17,GATATATC,0.39 E-score
18,ACGAGGTA,-0.176 E-score
19,ACCAATGA,0.0701 E-score
20,CTGACAGC,-0.227 E-score
21,AGGGTACC,-0.352 E-score
22,CGGGTTGC,-0.297 E-score
